# Test results reported in PubChem BioAssay (Tox21).
# Values joined by “and” are separate entries in the source; they are usually repeats but may differ in a detail not shown here. Equal entries are not always repeated. This list was built around the results that the source calls inconclusive (neither active nor inactive); the mix of calls is not that of the screen. Potencies beside an inconclusive call are fits to weak or partial responses and may not hold up. Active and inactive are the calls of the source. Unless noted, calls follow the shape of the dose curve; as a rule, active = well fitted curve in the direction sought with a large enough effect in the repeat runs; inconclusive = weak or mixed curves; inactive = no such curve, though single readings can be large; an effect the other way counts as inactive or inconclusive.
# Tests used:
# [1] = qHTS assay to identify small molecule agonists of the retinoic acid receptor (RAR) signaling pathway (AID 1159553); conditions: C3RL4 RARE luciferase reporter, agonist, 6 h; activation: at 73.3 µM (top of the series) unless noted; as to activation: % is scaled to controls: 0 for no effect and ±100 for the full control effect
# In short: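 C3RL4 RARE-luciferase cells were seeded at 1,000/well and grown overnight at 37 C, then exposed to compounds for 6 hr at 37 C, 5% CO2. Luciferase reagent was added and luminescence was read after 30 min at room temperature.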
# [2] = target: Nuclear receptor subfamily 1 group I member 3 (Homo sapiens) (UniProt Q14994); assay: qHTS assay to identify small molecule agonists of the constitutive androstane receptor (CAR) signaling pathway (AID 1224839); conditions: HepG2 hCAR CYP2B6-luciferase, agonist mode, 24 h; series mostly up to 92.4 µM; also: nearly all actives have a fitted effect of over 15% in size; as to activation: % is scaled to controls: 0 for no effect and ±100 for the full control effect
# In short: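 Compounds tested at 15 concentrations on HepG2 cells stably harbouring hCAR and CYP2B6-2.2kb reporter constructs, co-treated with PK11195 (0.75 uM final), 24 h at 37 C; luminescent reporter signal quantified.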
# [3] = target: Thyrotropin receptor (Homo sapiens) (UniProt P16473); assay: qHTS assay to identify small molecule agonists of the thyroid stimulating hormone receptor (TSHR) signaling pathway (AID 1224843; calls by dose curve; also: nearly all actives have a fitted effect of over 45% in size; as to activation: % is scaled to controls: 0 for no effect and ±100 for the full control effect); conditions: TSHR-HEK293 cells, cAMP HTRF, agonist mode, 30 min; activation: at 92.4 µM (top of the series) unless noted
# In short: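 TSHR-HEK293 cells in agonist mode, 30 min room-temperature step, then cAMP measured by competitive HTRF (cAMP-d2 with anti-cAMP cryptate) after 1 h at room temperature. Tested at 15 concentrations in triplicate.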
# [4] = target: Luciferin 4-monooxygenase (Photinus pyralis) (UniProt P08659); assay: qHTS assay to identify small molecule inhibitors of firefly luciferase (AID 1224835); also: nearly all actives have a fitted effect of over 25% in size; conditions: purified P. pyralis luciferase, luminescence inhibition; series mostly up to 115 µM
# In short: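 Biochemical qHTS: compounds run as interplate titrations against purified firefly enzyme, with D-luciferin and ATP each at its KM concentration. Light output recorded by CCD imaging.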
# [5] = qHTS assay to identify small molecule antagonists of the estrogen related receptor signaling pathway with the pleiotropic PPARgamma coactivator (PGC) from Tox21 10K library - cell viability counter screen (AID 1224840; active = well fitted cell-killing curve with a large enough effect in the repeat runs, not every such curve was filed as active; inconclusive = weak or mixed curves, or effect the other way; inactive = no such curve, though single readings can be large or run the other way; also: nearly all actives have a fitted effect of over 40% in size); conditions: PGC/ERR reporter cells viability, CellTiter-Fluor, 17.5 h; series mostly up to 92.4 µM
# In short: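 PGC/ERR cells (2,000/well) plated 6 h, then compound-treated for 17.5 h at 37 C. Viability measured by CellTiter-Fluor fluorescence after 30 min at 37 C, multiplexed with the pathway assay.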
# [6] = qHTS assay to identify small molecule agonists of the constitutive androstane receptor (CAR) signaling pathway - cell viability counter screen (AID 1224836); conditions: HepG2-CYP2B6-hCAR viability, CellTiter-Fluor, 23 h, PK11195 added to every well; series mostly up to 92.4 µM; also: nearly all actives have a fitted effect of over 45% in size
# In short: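 23 h treatment, 37 C, 5% CO2. Cell line: HepG2 stably expressing hCAR with a CYP2B6-2.2kb construct. Co-treatment: PK11195, 0.75 uM final. Read-out: CellTiter-Fluor fluorescence intensity.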
# [7] = qHTS assay to identify small molecule antagonists of the constitutive androstane receptor (CAR) signaling pathway - cell viability counter screen (AID 1224837); conditions: HepG2-CYP2B6-hCAR viability, CellTiter-Fluor, 23 h, co-treated with 50 nM CITCO; series mostly up to 92.4 µM; also: nearly all actives have a fitted effect of over 45% in size
# In short: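 HepG2 cells stably carrying hCAR and CYP2B6-2.2kb reporter, stimulated with 50 nM CITCO and compounds at 15 concentrations for 23 h at 37 C. Viability measured by CellTiter-Fluor fluorescence.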
# [8] = qHTS assay to identify small molecule agonists of the hypoxia (HIF-1) signaling pathway - cell viability counter screen (AID 1224844; calls by dose curve; also: nearly all actives have a fitted effect of over 50% in size); conditions: HRE-bla ME-180 viability, CellTiter-Glo luminescence, 17 h; series mostly up to 76.8 µM
# In short: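 HRE-bla ME-180 cells, 2,000/well in 0.5% dialyzed FBS medium, treated 17 h at 37C with compounds. Viability read in the same wells as the bla reporter, by CellTiter-Glo luminescence after 30 min at room temperature.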
# [9] = target: Nuclear receptor subfamily 1 group I member 3 (Homo sapiens) (UniProt Q14994); assay: qHTS assay to identify small molecule antagonists of the constitutive androstane receptor (CAR) signaling pathway (AID 1224838); conditions: HepG2-CYP2B6-hCAR luciferase, CITCO-stimulated, 24 h; series mostly up to 92.4 µM; also: nearly all actives have a fitted effect of over 40% in size
# In short: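 HepG2 cells stably carrying hCAR and a CYP2B6-2.2kb luciferase reporter, seeded 4 hrs before compound (15 concentrations). Stimulated with 50 nM CITCO for 24 hr at 37 C. ONE-Glo luminescence read after 30 min at room temperature.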
# [10] = qHTS assay to identify small molecule agonists of the estrogen related receptor signaling pathway with the pleiotropic PPARgamma coactivator (PGC) from Tox21 10K library (AID 1224842); conditions: PGC/ERR reporter cell line, luciferase ONE-Glo, 18 h; series mostly up to 42.5 µM; also: nearly all actives have a fitted effect of over 15% in size
# In short: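 PGC/ERR reporter cell line, 2,000 cells per well, incubated 6 h at 37 C before 23 nL compound in DMSO was added. After 18 h at 37 C, One-Glo luminescence read following 30 min at room temperature.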
# Potency is read from the fitted curve at half-maximal effect; tags tell the direction and shape of the fitted curve or compound fluorescence and quenching.
# UniProt P16473, sequence (P16473 whole entry, looked up): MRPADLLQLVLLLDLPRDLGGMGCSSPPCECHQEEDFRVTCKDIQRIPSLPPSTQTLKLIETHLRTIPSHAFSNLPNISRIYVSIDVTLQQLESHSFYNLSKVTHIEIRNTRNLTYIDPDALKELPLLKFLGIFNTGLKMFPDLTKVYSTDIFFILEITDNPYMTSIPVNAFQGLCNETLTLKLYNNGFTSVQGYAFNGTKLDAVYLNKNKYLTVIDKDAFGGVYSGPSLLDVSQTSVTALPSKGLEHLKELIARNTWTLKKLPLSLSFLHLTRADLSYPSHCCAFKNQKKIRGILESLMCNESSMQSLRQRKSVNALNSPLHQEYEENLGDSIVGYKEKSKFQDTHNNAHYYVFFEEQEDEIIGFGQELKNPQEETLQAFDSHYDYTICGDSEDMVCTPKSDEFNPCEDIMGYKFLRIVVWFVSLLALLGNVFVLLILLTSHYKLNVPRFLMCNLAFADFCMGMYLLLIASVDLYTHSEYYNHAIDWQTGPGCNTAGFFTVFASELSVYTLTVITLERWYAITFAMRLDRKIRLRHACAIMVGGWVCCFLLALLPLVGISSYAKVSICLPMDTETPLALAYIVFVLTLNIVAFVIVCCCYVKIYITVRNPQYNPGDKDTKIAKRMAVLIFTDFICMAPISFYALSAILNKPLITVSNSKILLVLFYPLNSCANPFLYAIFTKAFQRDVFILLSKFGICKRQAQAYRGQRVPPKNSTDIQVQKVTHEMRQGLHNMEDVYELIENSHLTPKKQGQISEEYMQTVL
# UniProt P08659, sequence (P08659 whole entry, looked up): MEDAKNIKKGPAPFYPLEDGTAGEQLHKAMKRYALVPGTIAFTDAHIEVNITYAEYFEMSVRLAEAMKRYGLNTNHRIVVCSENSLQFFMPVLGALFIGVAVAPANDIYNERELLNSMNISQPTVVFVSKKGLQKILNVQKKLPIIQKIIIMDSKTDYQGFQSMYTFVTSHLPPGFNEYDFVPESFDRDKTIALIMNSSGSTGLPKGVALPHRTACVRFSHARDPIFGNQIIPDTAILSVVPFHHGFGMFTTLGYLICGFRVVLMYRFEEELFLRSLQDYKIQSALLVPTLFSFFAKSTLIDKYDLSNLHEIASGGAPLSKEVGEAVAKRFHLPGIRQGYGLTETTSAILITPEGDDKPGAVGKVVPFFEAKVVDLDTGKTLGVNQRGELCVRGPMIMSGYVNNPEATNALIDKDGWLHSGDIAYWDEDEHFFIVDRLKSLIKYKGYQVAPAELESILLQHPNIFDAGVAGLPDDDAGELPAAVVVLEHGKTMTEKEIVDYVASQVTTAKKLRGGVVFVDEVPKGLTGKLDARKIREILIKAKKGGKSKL
# UniProt Q14994, sequence (Q14994 whole entry, looked up): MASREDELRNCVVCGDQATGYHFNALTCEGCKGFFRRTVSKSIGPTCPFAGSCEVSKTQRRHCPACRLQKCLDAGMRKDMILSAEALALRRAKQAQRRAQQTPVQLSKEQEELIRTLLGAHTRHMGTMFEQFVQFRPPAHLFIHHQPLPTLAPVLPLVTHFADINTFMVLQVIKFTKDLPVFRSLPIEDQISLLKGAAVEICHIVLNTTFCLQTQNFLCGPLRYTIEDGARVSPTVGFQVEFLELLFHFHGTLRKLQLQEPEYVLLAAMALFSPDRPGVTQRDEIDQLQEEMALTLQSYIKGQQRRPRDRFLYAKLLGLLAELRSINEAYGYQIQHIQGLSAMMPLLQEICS
smiles,measurement,setting,value
COc1ccc(C(=O)c2ccccc2)c(O)c1,Potency,[1],"inconclusive: 19 µM [activator, full curve] and active: 61.1 µM and active: 23.7 µM"
same,Potency,[2],"inconclusive: 26.6 µM [activator, partial curve]"
same,Potency,[3],"inconclusive: 6.86 µM [inhibitor, single point]"
same,activation,[3],inconclusive: -57%
CCOC(=O)[C@H](CCc1ccccc1)N[C@H]1CCc2ccccc2N(CC(=O)O)C1=O,Potency,[1],"inconclusive: 29.8 µM [inhibitor, single point]"
same,Potency,[4],inactive
same,Potency,[5],"inconclusive: 33.5 µM [cytotoxic, partial curve, poor fit]"
CC1(CN2CCC(n3c(=O)[nH]c4ccccc43)CC2)OCc2ccccc2-n2cccc21 (stereo not given),Potency,[1],inactive
same,Potency,[6],"inconclusive: 33.5 µM [cytotoxic, partial curve, poor fit]"
same,Potency,[7],"inconclusive: 33.5 µM [cytotoxic, single point]"
same,Potency,[5],"inconclusive: 26.6 µM [cytotoxic, partial curve, poor fit]"
same,Potency,[3],inconclusive: 29.8 µM [activator]
same,Potency,[8],active: 23.9 µM
CC(C)CCCCCOC(=O)CS,Potency,[1],inconclusive: 77 µM [activator]
same,Potency,[2],inactive
same,activation,[3],inconclusive: -41.5%
c1cc(OCC2CO2)cc(OCC2CO2)c1 (stereo not given),Potency,[1],"inconclusive: 68 µM [inhibitor, single point]"
same,Potency,[9],"inconclusive: 60.6 µM [inhibitor, partial curve]"
same,Potency,[8],"inconclusive: 61.2 µM [cytotoxic, single point]"
CNC(=O)c1ccccc1Sc1ccc2c(/C=C/c3ccccn3)n[nH]c2c1,Potency,[1],active: 0.188 µM
same,Potency,[7],"inconclusive: 15 µM [cytotoxic, partial curve, poor fit]"
same,Potency,[5],"inconclusive: 26.6 µM [cytotoxic, partial curve]"
c1ccc(CCCc2ccncc2)cc1,Potency,[1],active: 68.6 µM
same,Potency,[4],"inconclusive: 50.2 µM [inhibitor, partial curve]"
same,activation,[3],inconclusive: -42%
same,Potency,[8],"inconclusive: 43.6 µM [rising, partial curve, poor fit]"
C=C(C)C(=O)OCCOc1ccccc1,Potency,[1],"inconclusive: 77 µM [inhibitor, single point]"
same,Potency,[4],active: 35.6 µM
same,Potency,[3],"inconclusive: 38.6 µM [inhibitor, partial curve, poor fit]"
Oc1ccc(Sc2ccc(O)cc2)cc1,Potency,[1],"inconclusive: 57.2 µM [activator, partial curve, poor fit]"
same,Potency,[4],"inconclusive: 74.5 µM [inhibitor, partial curve]"
same,Potency,[3],inconclusive: 32.2 µM [activator]
O=C(/C=C/c1ccccc1)OCc1ccccc1,Potency,[1],active: 30.6 µM and active: 29.8 µM
same,Potency,[2],"inconclusive: 15.4 µM [activator, partial curve] and active: 29.8 µM"
same,Potency,[10],"inconclusive: 27.3 µM [activator, partial curve] and inconclusive: 13.3 µM [activator, partial curve]"
same,Potency,[3],"inconclusive: 7.7 µM [inhibitor, full curve]"
same,activation,[3],inconclusive: -6.91% [at 42.5 µM]
Cc1ccc(N)cc1O,Potency,[1],active: 12.2 µM
same,Potency,[4],"inconclusive: 3.99 µM [inhibitor, full curve]"
same,Potency,[3],inconclusive: 21.7 µM [activator]
O=S(=O)(Oc1ccc(Cl)cc1Cl)c1ccccc1,Potency,[1],"inconclusive: 13.9 µM [activator, full curve] and active: 68.6 µM"
same,Potency,[4],"inconclusive: 40.6 µM [inhibitor, partial curve]"
same,Potency,[10],"inconclusive: 27.8 µM [activator, partial curve, poor fit] and inconclusive: 27.3 µM [activator, single point]"
same,activation,[3],inconclusive: -2.49%
same,Potency,[8],"inconclusive: 62.7 µM [cytotoxic, single point]"
CCCCCCOc1ccccc1C(N)=O,Potency,[1],active: 13.3 µM
same,Potency,[4],"inconclusive: 27.5 µM [inhibitor, partial curve]"
same,Potency,[8],"inconclusive: 4.25 µM [rising, partial curve, poor fit]"
CC1CN(c2ccccc2)NC1=O (stereo not given),Potency,[1],"inconclusive: 61.1 µM [activator, partial curve, poor fit]"
same,Potency,[2],"inconclusive: 61.1 µM [activator, partial curve]"
